From PubChem BioAssay AID445 (National Center for Advancing Translational Sciences (NCATS), 2006)
Screen size: about 110,000 compounds; about 40 (0.04%) were called active. The inconclusive results got no clear call from the source; some entries with a clear call stand among them for comparison. Calls come from the whole dose curve; as a rule, active = well fitted curve in the direction sought with a large enough effect in the signal ratio (not every such curve was filed as active); inconclusive = small, poorly fitted or top-dose-only effect, or a change in a side signal; inactive = flat fitted curve, though single readings scatter; the % refers to the signal ratio. A potency beside an inconclusive call is a rough fit, not a confirmed value.

assay: IkB Signaling; settings: ABC-DLBCL IkBa-CBG/CBR dual luciferase ratio (green luciferase fused to IkBa over red control in OCI-Ly3 lymphoma cells), 4 h; IkBa stabilization activation: at 57.1 µM (top of the series), scaled: untreated 0%, proteasome inhibitor 100% unless noted;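 for IkBa stabilization activation: 0% = basal untreated cells and 100% = reference inhibitor full response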
Method in brief: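 Luminescence ratio of IκBα-fused green versus native red beetle luciferase in OCI-Ly3 cells, 4 h post-doxycycline with compound; red signal alone, scaled from basal (0%) to zero light (-100%), flagged nonspecific or cytotoxic effects.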
Potency is the fitted concentration of half-maximal effect.

Row | Structure (SMILES) | IkBa stabilization activation | Potency
1 | CCOC(=O)CCSc1nc2c(c(C(F)(F)F)c1C#N)CCC2 | inconclusive: 1.61% [signal inhibitor] | 
2 | CCCOC(=O)CSc1nnc(-c2cc(OC)c(OC)c(OC)c2)o1 |  | inconclusive: 25.1 µM [signal inhibitor, partial curve]
3 | Cc1c(C(=O)N(Cc2ccco2)Cc2ccccc2Cl)oc2ccc(F)cc12 | inconclusive: -1.07% [signal inhibitor] | 
4 | COc1ccc(OC(C)C(=O)NCc2nc(-c3cccc(C)c3)no2)cc1 (stereo not given) | inconclusive: -2.45% [signal inhibitor] | 
5 | O=C(Nc1ccc2nc(SCCOc3ccccc3Cl)sc2c1)c1ccc2c(c1)OCO2 | inconclusive: 4.16% [signal inhibitor] | 
6 | COc1ccc(S(=O)(=O)N(Cc2nc(-c3ccc(Cl)cc3)no2)C2CCCCC2)cc1 | inactive: -1.63% | 
7 | Cc1ccc(S(=O)(=O)NCc2ccc(C(=O)NCCc3cccc(C)c3)cc2)cc1 | inconclusive: -1.37% [signal activator] | 
8 | N#Cc1c(C(F)(F)F)cc(-c2cccs2)nc1SCC(=O)Nc1cccc(C(F)(F)F)c1 | inconclusive: 2.79% [signal inhibitor] | 
9 | O=C(c1ccccc1Br)N1CCC(c2nc3ccccc3o2)CC1 | inconclusive: -1.88% [signal inhibitor] | 
10 | Cc1ccc(Cn2c(=O)n(-c3cc(C)cc(C)c3)c(=O)c3oc4ccccc4c32)cc1 | inconclusive: 0.242% [signal inhibitor] | 
11 | O=S(=O)(c1ccc(-n2cnnn2)cc1)N1CCN(c2cccc(C(F)(F)F)c2)CC1 | inactive: -2.24% | 
12 | CC[C@@H]1O[C@]2(C=C[C@@H]1C)C[C@H]1C[C@H](CC=C(C)[C@@H](O[C@@H]3C[C@H](OC)[C@H](O[C@@H]4C[C@H](OC)[C@H](O)[C@H](C)O4)[C@H](C)O3)[C@@H](C)C=CC=C3CO[C@@H]4[C@@H](O)C(C)=C[C@@H](C(=O)O1)[C@]34O)O2 | inactive: -1.1% [at 25.6 µM, scaled: untreated 0%, proteasome inhibitor 100%] | 
13 | CN1C(=O)C(C)(C)c2cc(S(=O)(=O)N3CCCC3C(=O)Nc3ccc(F)cc3)ccc21 (stereo not given) | inconclusive: 0.58% [signal inhibitor] | 
14 | COc1cc(Cl)c(C)cc1NC(=O)c1sc2nc(C)cc(C)c2c1N | inconclusive: 14.9% [signal inhibitor] | 
15 | Cc1ccsc1CN(C(=O)COc1cccc(C)c1C)C1CCS(=O)(=O)C1 (stereo not given) | inconclusive: 5.72% [signal inhibitor] | 
16 | COc1cc(C(=O)N(Cc2cccnc2)c2nc3cc(C)c(C)cc3s2)cc(OC)c1OC | inactive: -0.671% | 
17 | COc1ccccc1NC(=O)C(Cc1ccccc1)NS(=O)(=O)c1cccc2nsnc12 (stereo not given) | inconclusive: 6.93% [signal inhibitor] | 
18 | CCCCOC(=O)c1cccc(NC(=O)/C=C/c2ccccc2Cl)c1 |  | inconclusive: 3.98 µM [signal inhibitor, single point]
19 | O=C(Cn1c(SCC(=O)Nc2ccc(F)cc2)nc2ccccc21)NCc1ccccc1Cl | inconclusive: 3.45% [signal inhibitor] | 
20 | COc1cc(OC)cc(C(=O)Nc2cc(-c3nc4cccnc4s3)ccc2C)c1 | inconclusive: -0.612% [signal inhibitor] | 
21 | CC(C)OCCCn1c(-c2ccco2)nc2nc3ccccc3nc21 | inactive: -4.25% | 
22 | COc1ccc(NC(=O)C2CCN(S(=O)(=O)c3ccc4c(c3)CCCC(=O)N4)CC2)c(OC)c1 | inconclusive: 4.34% [signal inhibitor] | 
23 | Cn1c(=O)c(=O)n(C)c2cc(S(=O)(=O)N3CCCC3C(=O)Nc3ccc(F)cc3)ccc21 (stereo not given) | inconclusive: 5.77% [signal inhibitor] | 
24 | c1coc(CSCc2cn3cccnc3n2)c1 | inactive: 0.456% | 

Row | Structure (SMILES) | IkBa stabilization activation | Potency
25 | CCOc1ccc(CNC(=O)Cn2ccc3cc(S(=O)(=O)N4CCCCC4)ccc32)cc1 | inconclusive: -0.984% [signal inhibitor] | 
26 | CCc1ccccc1N(C)C(=O)c1nn(-c2ccc(OC)cc2)c(=O)c2c1c1ccccc1n2C | inactive: -0.248% | 
27 | CCOc1ccc(CNc2cc(C)nc3nc(-c4cccc(C)c4)nn23)cc1OC | inconclusive: -0.201% [signal inhibitor] | 
28 | O=C1OC(=O)c2c(Cl)c(Cl)c(Cl)c(Cl)c21 | inactive: -0.265% | 
29 | Cc1cccc(NC(=O)c2ccc3oc(=O)c(S(=O)(=O)c4ccc(F)cc4)cc3c2)c1C | inconclusive: 9.88% [signal inhibitor] | 
30 | CCOc1ccccc1CNCc1c(C(=O)O)n(Cc2ccccc2)c2cc(OC)ccc12 | inconclusive: -0.104% [signal inhibitor] | 
31 | Cc1ccc(S(=O)(=O)Nc2ccc(-c3ccc(N4CCCCCC4)nn3)cc2)c(C)c1 | inconclusive: 4.24% [signal inhibitor] | 
32 | CCOC(=O)c1cc(C)n(CC2CCC(C(=O)Nc3cccc(C(C)=O)c3)CC2)c1C (stereo not given) | inconclusive: -1.03% [signal inhibitor] | 
33 | CCOc1ccccc1C1C(C(=O)Nc2ccccc2)=C(C)Nc2nc(-c3ccccc3)nn21 (stereo not given) |  | inconclusive: 31.6 µM [signal inhibitor]
34 | COc1ccccc1OCc1nc2ccccc2n1Cc1ccccc1 | inconclusive: 2.89% [signal inhibitor] | 
35 | O=C(c1ccco1)N1CCN(S(=O)(=O)c2ccc3c(c2)CCN3C(=O)C2CC2)CC1 | inactive: -1.18% | 
36 | CC(C)NC(=O)CSc1cn(CC(=O)N2CCCCCC2)c2ccccc12 | inconclusive: -0.39% [signal inhibitor] | 
37 | COc1ccc(CCCc2nnc(SCC(=O)Nc3cc(C)c(C)cc3Br)o2)cc1 | inconclusive: 1.22% [signal inhibitor] | 
38 | Cc1ccc(Cl)cc1NC(=O)CN1C(=O)c2ccccc2Sc2ncccc21 | inconclusive: -3.58% [signal inhibitor] | 
39 | COC(=O)c1c(NC(=O)CSc2nnc(-c3cccnc3)n2Cc2ccco2)sc(C)c1C | inconclusive: 13.3% [signal inhibitor] | 
40 | Cc1ccc(CNS(=O)(=O)c2c(C)nc3sc(C)cn3c2=O)cc1 | inactive: -1.19% | 
41 | Cc1nc(CSc2nc3[nH]ncc3c(=O)n2-c2ccccc2)cs1 | inactive: -0.891% | 
42 | COc1ccc(CCNC(=O)c2ccc3c(c2)nc2n3CCCCC2)cc1OC | inconclusive: -0.999% [signal inhibitor] | 
43 | Cc1cccc(N2CCN(Cc3nnc(-c4cccc(Br)c4)o3)CC2)c1C | inconclusive: 7.57% [signal inhibitor] | 
44 | COC(=O)c1cc(-c2cccc(OC)c2)on1 | inactive: 0.723% | 
45 | Cc1csc(SCC(=O)Nc2ccccn2)n1 | inconclusive: 5.77% [signal inhibitor] | 
46 | N#CC(=NCCO)C1=C(O)c2ccccc2C1=O | inactive: -0.949% [at 11.4 µM, scaled: untreated 0%, proteasome inhibitor 100%] | 
47 | Cc1cc(/C=N/n2cnnc2)c(C)n1-c1ccc(OCc2ccc(F)cc2)cc1 | inconclusive: -2.15% [signal inhibitor] | 
48 | COc1ccccc1NC(=O)Cn1c(=O)oc2cc(S(=O)(=O)NCc3ccccc3)ccc21 | inconclusive: 1.02% [signal inhibitor] | 

Row | Structure (SMILES) | IkBa stabilization activation | Potency
49 | Clc1ccc2nc(-c3ccc(N4CCOCC4)cc3)c(Nc3ccccc3)n2c1 | inconclusive: 3.03% [signal inhibitor] | 
50 | COc1ccc(N2CCN(CC(=O)Nc3nc4c(s3)CC(C)CC4)CC2)cc1 (stereo not given) | inconclusive: 1.65% [signal inhibitor] | 
51 | CCc1cccc(NC(=O)C2CCCN2S(=O)(=O)c2ccc3nc(-c4ccccc4)[nH]c3c2)c1 (stereo not given) | inactive: -0.069% | 
52 | O=C(Nc1ccc2c(c1)OCO2)c1cnn2cccnc12 | inactive: 3.72% | 
53 | CCCc1ccc(OCc2ccc(C(=O)Nc3ccccc3C(=O)OC)o2)cc1 | inconclusive: 7.52% [signal inhibitor] | 
54 | CCc1ccc(CNC(=O)c2cccc(-n3c(C)nc4cccnc43)c2)cc1 | inconclusive: 0.703% [signal inhibitor] | 
55 | C1CCN(c2nc3nonc3nc2N2CCCCC2)CC1 | inactive: 1.41% | 
56 | CCc1ccc(-c2nnn(Cc3nc4ccccc4s3)n2)cc1 | inconclusive: 2.71% [signal inhibitor] | 
57 | COc1ccc(C2=CC(c3c(C)nn(-c4ccccc4)c3Cl)n3nnnc3N2)cc1OC (stereo not given) | inactive: 4.96% | 
58 | CCCCN(CC)C(=O)c1ccc2c(c1)NC(=O)c1ccccc1S2 | inconclusive: -0.967% [signal inhibitor] | 
59 | Oc1ccccc1C1=NCCNC(C(F)(F)C(F)F)=C1 | inactive: -0.0526% | 
60 | CC(C)Cc1nnc(NC(=O)CSc2nc(=O)cc(N)n2-c2ccccc2)s1 | inconclusive: 9.86% [signal inhibitor] | 
61 | CC(C)COc1cc(=O)[nH]c(SCC(C)C)n1 | inactive: -2.57% | 
62 | COc1ccc(OC)c([C@@H]2Nc3ccc(C(=O)O)cc3[C@@H]3C=CC[C@@H]32)c1 | inconclusive: 1.44% [signal inhibitor] | 
63 | Cc1noc(/C=C/NCc2cccnc2)c1S(=O)(=O)N(C)CC(=O)N1CCc2ccccc21 |  | inconclusive: 15.8 µM [signal inhibitor, partial curve]
64 | CC1CCN(C(=O)CSc2nc(N)cc(N)n2)CC1 | inactive: 2.77% | 
65 | O=C(Nc1ccc2ccccc2c1)c1cnccn1 | inactive: 13.8% | 
66 | COc1ccccc1N1CCN(C(=O)CSc2ncccc2-c2nc3ccccc3[nH]2)CC1 |  | inconclusive: 20 µM [signal inhibitor, partial curve]
67 | COCCCNC(=O)CCCn1c(=O)c2ccccc2n(CC(=O)Nc2ccc(C)cc2Cl)c1=O | inactive: 4.79% | 
68 | CC(C)Cn1c(-c2ccccc2Cl)nc2ccccc21 | inconclusive: 2.59% [signal inhibitor] | 
69 | CCC(c1nnnn1Cc1ccco1)N1CCN(c2cc(Cl)ccc2C)CC1 (stereo not given) | inconclusive: 3.42% [signal inhibitor] | 
70 | O=C1c2ccccc2-c2cc([N+](=O)[O-])c([N+](=O)[O-])cc21 |  | active: 3.98 µM
